Where a name gives a salt, the structure may show the parent alone. ± gives the standard deviation of the averaged measurements. The list shows a part of the results. Repeats are few or missing, and single values can be far off.

This note sets out measurements from the supplement of paper PMC8813932.

What all share (experiment): log2 surviving fraction relative to plate median (drug vs vehicle, or drug+dl922-947 vs dl922-947 alone); ovarian cancer lines: OVCAR4 is platinum-sensitive while Ov4Cis resists cisplatin and Ov4Carbo carboplatin; higher = more cell survival
What all share (conditions): compound concentration: 10 uM, 192 h

For experiment [1], the system named is OVCAR4.
Experiment [2] has as its system Ov4Carbo.
Experiment [3] has as its system Ov4Cis.
Where [4] appears, read: dl922-947 oncolytic adenovirus co-treatment: MOI 10.
[5] abbreviates: dl922-947 oncolytic adenovirus co-treatment: none.

Regarding `CCCCC(=O)N(Cc1ccc(-c2ccccc2-c2nnn[nH]2)cc1)[C@H](C(=O)O)C(C)C` [Valsartan (Diovan)], the log2 surviving fraction was -0.0552 ± 0.27 in experiment [1] (setting [4]); 0.359 ± 0.42 in experiment [1] (setting [5]); 0.436 in experiment [2] (setting [4]); -1.7 in experiment [2] (setting [5]); 0.408 in experiment [3] (setting [4]); -0.152 in experiment [3] (setting [5]).
Take `CCc1cccc2c3c([nH]c12)C(CC)(CC(=O)O)OCC3` (configuration not stated) [Etodolac (Lodine)]: the log2 surviving fraction in experiment [1] (setting [4]) was 0.111 ± 0.42; in experiment [1] (setting [5]) it was 0.325 ± 0.46; in experiment [2] (setting [4]), 0.0503; in experiment [2] (setting [5]) it was -0.597; in experiment [3] (setting [4]), 0.558; in experiment [3] (setting [5]), 0.209.
Consider `CC(COc1ccccc1)N(CCCl)Cc1ccccc1` (configuration not stated) [Phenoxybenzamine HCl], for which the log2 surviving fraction in experiment [1] (setting [4]) is -0.464 ± 0.26; in experiment [1] (setting [5]), -0.374 ± 0.78; in experiment [2] (setting [4]) it was 0.557; in experiment [2] (setting [5]) it was 0.656; in experiment [3] (setting [4]) it was -0.435; in experiment [3] (setting [5]), -0.718.
`Cc1ccc(C(=O)c2ccc(CC(=O)O)n2C)cc1` [Tolmetin Sodium]: the log2 surviving fraction in experiment [1] (setting [4]) was 0.0381 ± 0.19; in experiment [1] (setting [5]), 0.214 ± 0.19; in experiment [2] (setting [4]) it was 0.0715; in experiment [2] (setting [5]) it was 0.383; in experiment [3] (setting [4]), 1.26; in experiment [3] (setting [5]) it was -0.942.
Turning to `CCCCc1oc2ccc(NS(C)(=O)=O)cc2c1C(=O)c1ccc(OCCCN(CCCC)CCCC)cc1` [Dronedarone HCl (Multaq)], the log2 surviving fraction in experiment [1] (setting [4]) is -8.69 ± 0.11; in experiment [1] (setting [5]) it was -9.61 ± 4.5; in experiment [2] (setting [4]), -7.53; in experiment [2] (setting [5]), -10.7; in experiment [3] (setting [4]), -8.16; in experiment [3] (setting [5]), -12.8.
Take `COc1c2occc2cc2ccc(=O)oc12` [Methoxsalen (Oxsoralen)]: the log2 surviving fraction in experiment [1] (setting [4]) was determined as 0.858 ± 0.12; in experiment [1] (setting [5]) it was 0.678 ± 0.64; in experiment [2] (setting [4]), 0.272; in experiment [2] (setting [5]), 0.249; in experiment [3] (setting [4]) it was 0.0292; in experiment [3] (setting [5]) it was 0.723.
For the compound `CCN(CC)CCCC(C)Nc1ccnc2cc(Cl)ccc12` (configuration not stated) [Chloroquine Phosphate], the log2 surviving fraction in experiment [1] (setting [4]) was -0.253 ± 0.26; in experiment [1] (setting [5]), 0.541 ± 0.19; in experiment [2] (setting [4]), -0.203; in experiment [2] (setting [5]), 0.526; in experiment [3] (setting [4]) it was 0.587; in experiment [3] (setting [5]) it was 0.719.
As to `COc1ccc(C(CN(C)C)C2(O)CCCCC2)cc1` (configuration not stated) [Venlafaxine], the log2 surviving fraction in experiment [1] (setting [4]) is 0.23 ± 0.029; in experiment [1] (setting [5]), 0.586 ± 0.32; in experiment [2] (setting [4]), -0.822; in experiment [2] (setting [5]), 0.892; in experiment [3] (setting [4]) it was 0.165; in experiment [3] (setting [5]), 0.522.
As to `COc1c(N2CCNC(C)C2)c(F)cc2c(=O)c(C(=O)O)cn(C3CC3)c12` (configuration not stated) [Gatifloxacin], the log2 surviving fraction in experiment [1] (setting [4]) is -0.621 ± 0.27; in experiment [1] (setting [5]), -0.705 ± 0.97; in experiment [2] (setting [4]) it was -0.518; in experiment [2] (setting [5]), -0.166; in experiment [3] (setting [4]), -1.14; in experiment [3] (setting [5]), -0.497.
Consider `C[C@H]1[C@H](NC(=O)/C(=N\OC(C)(C)C(=O)O)c2csc(N)n2)C(=O)N1S(=O)(=O)O` [Aztreonam (Azactam, Cayston)], for which the log2 surviving fraction in experiment [1] (setting [4]) was 0.31 ± 0.29; in experiment [1] (setting [5]), 0.118 ± 0.6; in experiment [2] (setting [4]), 0.243; in experiment [2] (setting [5]), -0.589; in experiment [3] (setting [4]), 0.563; in experiment [3] (setting [5]), 0.767.
Take `C=C1CC[C@@]2(O)[C@H]3Cc4ccc(O)c5c4[C@@]2(CCN3CC2CC2)[C@H]1O5` [Nalmefene HCl]: the log2 surviving fraction in experiment [1] (setting [4]) was 0.664 ± 0.097; in experiment [1] (setting [5]), 0.699 ± 0.79; in experiment [2] (setting [4]) it was 0.808; in experiment [2] (setting [5]), 1.06; in experiment [3] (setting [4]), 0.602; in experiment [3] (setting [5]) it was 0.472.
Regarding `CC1Cc2ccccc2N1NC(=O)c1ccc(Cl)c(S(N)(=O)=O)c1` (configuration not stated) [Indapamide (Lozol)], the log2 surviving fraction in experiment [1] (setting [4]) is -0.215 ± 1.3; in experiment [1] (setting [5]), -0.393 ± 0.66; in experiment [2] (setting [4]) it was 0.094; in experiment [2] (setting [5]) it was 1.39; in experiment [3] (setting [4]) it was -0.76; in experiment [3] (setting [5]), -0.474.
`CCN(CC)CCOCCOC(=O)C(CC)(CC)c1ccccc1` [Oxeladin Citrate]: the log2 surviving fraction was -2.26 ± 0.028 in experiment [1] (setting [4]); -1.02 ± 0.075 in experiment [1] (setting [5]); -2.97 in experiment [2] (setting [4]); -2.07 in experiment [2] (setting [5]); -1.81 in experiment [3] (setting [4]); -0.392 in experiment [3] (setting [5]).
Take `Cc1cccc(C)c1NC1=NCCCS1` [Xylazine HCl]: the log2 surviving fraction in experiment [1] (setting [4]) is -0.0521 ± 0.31; in experiment [1] (setting [5]), 0.595 ± 0.33; in experiment [2] (setting [4]), 0.0891; in experiment [2] (setting [5]), -0.0957; in experiment [3] (setting [4]), -0.353; in experiment [3] (setting [5]), -0.377.
On to `CN(C)CCC[C@@]1(c2ccc(F)cc2)OCc2cc(C#N)ccc21` [Escitalopram oxalate], for which the log2 surviving fraction in experiment [1] (setting [4]) was -0.223 ± 0.052; in experiment [1] (setting [5]), -0.237 ± 0.78; in experiment [2] (setting [4]), -0.519; in experiment [2] (setting [5]), -0.982; in experiment [3] (setting [4]), -0.302; in experiment [3] (setting [5]), 0.884.
On to `COCCCOc1cc(C[C@@H](C[C@H](N)[C@@H](O)C[C@H](C(=O)NCC(C)(C)C(N)=O)C(C)C)C(C)C)ccc1OC` [Aliskiren hemifumarate], for which the log2 surviving fraction is -0.555 ± 0.53 in experiment [1] (setting [4]); 0.0701 ± 0.34 in experiment [1] (setting [5]); 0.379 in experiment [2] (setting [4]); 0.384 in experiment [2] (setting [5]); 0.755 in experiment [3] (setting [4]); -0.0824 in experiment [3] (setting [5]).
Turning to `CC[C@H](C)C(=O)O[C@H]1CCC=C2C=C[C@H](C)[C@H](CC[C@@H]3C[C@@H](O)CC(=O)O3)[C@H]21` [Mevastatin], the log2 surviving fraction in experiment [1] (setting [4]) is -0.563 ± 0.85; in experiment [1] (setting [5]) it was -1.72 ± 0.11; in experiment [2] (setting [4]) it was -2.11; in experiment [2] (setting [5]), -3.6; in experiment [3] (setting [4]) it was -0.725; in experiment [3] (setting [5]), -1.62.
As to `COc1ccc(C(=O)N2CCCC2=O)cc1` [Aniracetam], the log2 surviving fraction amounted to 0.521 ± 0.28 in experiment [1] (setting [4]); 0.799 ± 0.56 in experiment [1] (setting [5]); 0.595 in experiment [2] (setting [4]); 1.33 in experiment [2] (setting [5]); 0.594 in experiment [3] (setting [4]); 0.578 in experiment [3] (setting [5]).
Turning to `CCC[C@@H]1C[C@@H](C(=O)N[C@@H]([C@H]2O[C@H](SC)[C@H](O)[C@@H](O)[C@H]2O)[C@@H](C)O)N(C)C1` [Lincomycin hydrochloride (Lincocin)], the log2 surviving fraction in experiment [1] (setting [4]) was 0.138 ± 0.083; in experiment [1] (setting [5]) it was 0.188 ± 0.038; in experiment [2] (setting [4]), -0.293; in experiment [2] (setting [5]), 0.35; in experiment [3] (setting [4]), 0.892; in experiment [3] (setting [5]), 0.44.
On to `O=C(c1ccc(OCCN2CCCCC2)cc1)c1c(-c2ccc(O)cc2)sc2cc(O)ccc12` [Evista (Raloxifene Hydrochloride)], for which the log2 surviving fraction is -1.34 ± 0.12 in experiment [1] (setting [4]); -1.18 ± 0.77 in experiment [1] (setting [5]); -4.18 in experiment [2] (setting [4]); -3.57 in experiment [2] (setting [5]); -2.45 in experiment [3] (setting [4]); -3.99 in experiment [3] (setting [5]).
For `COc1cc2c(cc1Cc1cccc(Cl)c1F)c(=O)c(C(=O)O)cn2[C@H](CO)C(C)C` [Elvitegravir (GS-9137)], the log2 surviving fraction was -1.86 ± 0.72 in experiment [1] (setting [4]); -1.05 ± 0.18 in experiment [1] (setting [5]); -1.8 in experiment [2] (setting [4]); -0.798 in experiment [2] (setting [5]); -1.18 in experiment [3] (setting [4]); -1.93 in experiment [3] (setting [5]).
For `[O-][n+]1ccccc1[S-].[O-][n+]1ccccc1[S-].[Zn+2]` [Pyrithione zinc], the log2 surviving fraction was -8.85 ± 0.8 in experiment [1] (setting [4]); -10.5 ± 5.9 in experiment [1] (setting [5]); -7.54 in experiment [2] (setting [4]); -10.7 in experiment [2] (setting [5]); -8.84 in experiment [3] (setting [4]); -13.5 in experiment [3] (setting [5]).
